This passage reports binding results from paper PMC10063618.

Assay [1] concerns the target T1, GFP-FREE1 (transgenic Arabidopsis plants) (Arabidopsis thaliana) (UniProt Q9ASS2).
T1 sequence: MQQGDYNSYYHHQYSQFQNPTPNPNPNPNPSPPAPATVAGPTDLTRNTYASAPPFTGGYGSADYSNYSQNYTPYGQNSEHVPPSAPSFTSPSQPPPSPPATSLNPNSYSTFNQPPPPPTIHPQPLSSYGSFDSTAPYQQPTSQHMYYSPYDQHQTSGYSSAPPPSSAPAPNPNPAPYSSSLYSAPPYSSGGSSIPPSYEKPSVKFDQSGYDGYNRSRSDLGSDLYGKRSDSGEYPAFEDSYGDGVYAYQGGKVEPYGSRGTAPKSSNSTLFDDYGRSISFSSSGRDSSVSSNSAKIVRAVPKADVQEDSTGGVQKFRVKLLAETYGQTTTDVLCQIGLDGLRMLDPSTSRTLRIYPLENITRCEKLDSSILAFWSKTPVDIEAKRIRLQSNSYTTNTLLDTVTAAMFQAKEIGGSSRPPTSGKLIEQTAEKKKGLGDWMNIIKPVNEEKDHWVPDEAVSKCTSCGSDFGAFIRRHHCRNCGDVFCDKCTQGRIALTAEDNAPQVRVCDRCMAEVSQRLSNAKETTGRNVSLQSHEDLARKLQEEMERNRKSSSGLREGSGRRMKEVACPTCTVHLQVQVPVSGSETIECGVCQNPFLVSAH
Briefly: co-IP; GFP-Trap magnetic beads, 2-4 h at 4 °C, on extracts of transgenic plants expressing the GFP fusion; endogenous partner found by immunoblot; IP buffer 50 mM Tris-HCl pH 7.4, 150 mM NaCl, 1 mM MgCl2, 20% glycerol, 0.2% NP-40; some experiments after nitrogen starvation for at least 18 h. On the technique in general: In western blotting, separated proteins are transferred to a membrane and probed.

Assay [2] addresses T2, YFP-FREE1 (Arabidopsis protoplasts) (Arabidopsis thaliana) (UniProt Q9ASS2).
T2 sequence: T1 sequence
Briefly: co-IP; GFP-Trap magnetic beads, 2-4 h at 4 °C, on extracts of Arabidopsis protoplasts co-expressing both tagged proteins; IP buffer 50 mM Tris-HCl pH 7.4, 150 mM NaCl, 1 mM MgCl2, 20% glycerol, 0.2% NP-40; YFP only as control.

Assay [3] deals with T3, BD-FREE1^231-601 (Arabidopsis thaliana) (UniProt Q9ASS2).
T3 sequence: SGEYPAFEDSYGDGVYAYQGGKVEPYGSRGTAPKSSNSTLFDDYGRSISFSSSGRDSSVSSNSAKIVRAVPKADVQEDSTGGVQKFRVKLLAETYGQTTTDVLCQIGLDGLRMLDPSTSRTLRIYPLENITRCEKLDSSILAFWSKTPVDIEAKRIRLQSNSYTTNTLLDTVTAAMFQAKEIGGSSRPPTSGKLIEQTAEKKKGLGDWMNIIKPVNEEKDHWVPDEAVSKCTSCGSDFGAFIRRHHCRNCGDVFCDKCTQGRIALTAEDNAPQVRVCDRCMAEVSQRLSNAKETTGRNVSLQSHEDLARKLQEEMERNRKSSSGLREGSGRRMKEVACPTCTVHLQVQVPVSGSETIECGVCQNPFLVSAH
Briefly: two-hybrid; pGBKT7 (BD-FREE1 231-601) and pGADT7 co-transformed into yeast AH109; selection on SD lacking His, Trp, Leu with 3AT, or His, Trp, Leu and Ade.

In assay [4] the target is T4, CFP-FREE1 (Arabidopsis thaliana) (UniProt Q9ASS2).
T4 sequence: T1 sequence
The experiment in a line: FRET or BRET; acceptor photobleaching FRET of CFP and YFP fusions in Arabidopsis protoplasts cultured 24 h, Leica SP8.

Assay [5] deals with T5, GFP-FREE1^S530A (Arabidopsis thaliana) (UniProt Q9ASS2).
T5 sequence: T1 sequence with S530A
Briefly: co-IP; GFP-Trap magnetic beads, 2-4 h at 4 °C, on extracts of transgenic plants expressing the GFP fusion; endogenous partner found by immunoblot; IP buffer 50 mM Tris-HCl pH 7.4, 150 mM NaCl, 1 mM MgCl2, 20% glycerol, 0.2% NP-40; some experiments after nitrogen starvation for at least 18 h.

Where a chain is given by its changes, count along the chain named. Results are given in words; binding and its absence hold for the method and conditions named. For part of these data: Binding seen in cells or lysates may run through a third protein. Some binding calls cover weakened binding; strength is not graded here. Tags and fused reporters may be left off the sequences shown.

B1: ATG12b (endogenous) (protein, UniProt Q9LVK3 1-94)
chain: MATESPNSVQKIVVHLRATGGAPILKQSKFKVSGSDKFANVIDFLRRQLHSDSLFVYVNSAFSPNPDESVIDLYNNFGFDGKLVVNYACSMAWG
Turning to B1, the binding entry in assay [1] is on record as “binds”.

B2: KIN10 (SnRK1α1), endogenous (enzyme, UniProt Q38997 1-512)
chain: MDGSGTGSRSGVESILPNYKLGRTLGIGSFGRVKIAEHALTGHKVAIKILNRRKIKNMEMEEKVRREIKILRLFMHPHIIRLYEVIETPTDIYLVMEYVNSGELFDYIVEKGRLQEDEARNFFQQIISGVEYCHRNMVVHRDLKPENLLLDSKCNVKIADFGLSNIMRDGHFLKTSCGSPNYAAPEVISGKLYAGPEVDVWSCGVILYALLCGTLPFDDENIPNLFKKIKGGIYTLPSHLSPGARDLIPRMLVVDPMKRVTIPEIRQHPWFQAHLPRYLAVPPPDTVQQAKKIDEEILQEVINMGFDRNHLIESLRNRTQNDGTVTYYLILDNRFRASSGYLGAEFQETMEGTPRMHPAESVASPVSHRLPGLMEYQGVGLRSQYPVERKWALGLQSRAHPREIMTEVLKALQDLNVCWKKIGHYNMKCRWVPNSSADGMLSNSMHDNNYFGDESSIIENEAAVKSPNVVKFEIQLYKTRDDKYLLDLQRVQGPQFLFLDLCAAFLAQLRVL
Consider B2, for which, in assay [1], the binding result was “binds”.

B3: KIN10-6HA (enzyme, UniProt Q38997 1-512)
chain: B2 chain
Take B3: the binding entry in assay [2] was “binds”.

B4: AD-KIN10 (enzyme, UniProt Q38997 1-512)
chain: B2 chain
On to B4, for which, in assay [3], the binding result is on record as “binds”.

B5: KIN10-YFP (enzyme, UniProt Q38997 1-512)
chain: B2 chain
B5: the binding entry in assay [4] is recorded as “binds”.

B6: YFP-ATG8a (protein, UniProt Q8LEM4 1-117)
chain: MAKSSFKISNPLEARMSESSRIREKYPDRIPVIVEKAGQSDVPDIDKKKYLVPADLTVGQFVYVVRKRIKLGAEKAIFVFVKNTLPPTAALMSAIYEEHKDEDGFLYMTYSGENTFG
On to B6, for which the binding entry in assay [4] was “binds”.

B7: ATG16 (yeast two-hybrid fusion) (protein, UniProt Q6NNP0 1-509)
chain: MVQEEKAMEAINDALRALRKRHLLEEGAHAPAISALSKPLISQGSEWKEKTEKLETELQQCYKAQSRLSEQLVIEVAESRTSKAILQEKELLINDLQKELTQRREDCTRLQEELEEKTKTVDVLIAENLEIRSQLEEMTSRVQKAETENKMLIDRWMLQKMQDAERLNEANDLYEEMLAKLKANGLETLARQQVDGIVRRNEDGTDHFVESTIPSTCANRIHAHEGGCGSIVFEYNSGTLFTGGQDRAVKMWDTNSGTLIKSLYGSLGNILDMAVTHDNKSVIAATSSNNLFVWDVSSGRVRHTLTGHTDKVCAVDVSKFSSRHVVSAAYDRTIKLWDLHKGYCTNTVLFTSNCNAICLSIDGLTVFSGHMDGNLRLWDIQTGKLLSEVAGHSSAVTSVSLSRNGNRILTSGRDNVHNVFDTRTLEICGTLRASGNRLASNWSRSCISPDDDYVAAGSADGSVHVWSLSKGNIVSILKEQTSPILCCSWSGIGKPLASADKNGYVCTWT
For B7, in assay [3], the binding entry is recorded as “no binding”.

B8: ATG5 (yeast two-hybrid fusion) (protein, UniProt Q9FFI2 1-337)
chain: MAKEAVKYVWEGAIPLQIHLHKSDVASHPAPPPALVLAPRIGYLPLLIPLIKPYFKDSLPPGEDSIWFDYKGFPLKWYIPTGVLFDLLCAEPERPWNLTIHFRGYPCNILIPCEGEDSVKWNFVNSLKEAQYIINGNCKNVMNMSQSDQEDLWTSVMNGDLDAYTRLSPKLKMGTVEDEFSRKTSLSSPQSQQVVPETEVAGQVKTARIPVRLYVRSLNKDFENLEDVPEIDTWDDISYLNRPVEFLKEEGKCFTLRDAIKSLLPEFMGDRAQTSGEERSIDDTEEADGSREMGEIKLVRIQGIEMKLEIPFSWVVNNLMNPEFYLHISVLVKAPQR
On to B8, for which the binding result in assay [3] is “no binding”.

B9: ATG5 (endogenous) (protein, UniProt Q9FFI2 1-337)
chain: B8 chain
As to B9, the binding entry in assay [5] is recorded as “no binding”.
